For two substances, binding results are on record in PMC9241269.

Sequences of proteins named here, by UniProt entry; tags and fusion partners are left off. A change or cut given only in a name is not applied to a line headed by its entry.
UniProt P45983: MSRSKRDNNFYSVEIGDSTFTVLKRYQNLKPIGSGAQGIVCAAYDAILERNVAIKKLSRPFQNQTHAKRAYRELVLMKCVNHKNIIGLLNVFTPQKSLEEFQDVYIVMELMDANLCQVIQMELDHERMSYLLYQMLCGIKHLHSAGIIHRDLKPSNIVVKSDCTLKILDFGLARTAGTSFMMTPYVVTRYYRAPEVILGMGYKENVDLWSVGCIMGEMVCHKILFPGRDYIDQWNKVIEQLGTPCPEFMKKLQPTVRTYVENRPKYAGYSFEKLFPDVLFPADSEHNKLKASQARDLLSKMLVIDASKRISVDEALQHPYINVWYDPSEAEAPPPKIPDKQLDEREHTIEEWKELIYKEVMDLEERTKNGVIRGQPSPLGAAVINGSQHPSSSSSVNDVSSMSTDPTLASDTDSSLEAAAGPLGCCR
UniProt O14733: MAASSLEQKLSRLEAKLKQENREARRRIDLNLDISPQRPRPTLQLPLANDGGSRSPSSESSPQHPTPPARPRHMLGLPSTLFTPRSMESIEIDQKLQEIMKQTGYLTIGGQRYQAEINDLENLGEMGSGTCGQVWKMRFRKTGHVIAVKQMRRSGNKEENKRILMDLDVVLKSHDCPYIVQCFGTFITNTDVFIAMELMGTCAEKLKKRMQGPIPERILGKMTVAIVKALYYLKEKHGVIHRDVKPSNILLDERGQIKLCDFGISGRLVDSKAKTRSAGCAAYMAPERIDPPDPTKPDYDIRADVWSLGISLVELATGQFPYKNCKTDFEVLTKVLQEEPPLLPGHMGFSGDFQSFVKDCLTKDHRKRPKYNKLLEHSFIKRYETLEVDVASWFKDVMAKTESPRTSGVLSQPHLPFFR
UniProt Q9BT88: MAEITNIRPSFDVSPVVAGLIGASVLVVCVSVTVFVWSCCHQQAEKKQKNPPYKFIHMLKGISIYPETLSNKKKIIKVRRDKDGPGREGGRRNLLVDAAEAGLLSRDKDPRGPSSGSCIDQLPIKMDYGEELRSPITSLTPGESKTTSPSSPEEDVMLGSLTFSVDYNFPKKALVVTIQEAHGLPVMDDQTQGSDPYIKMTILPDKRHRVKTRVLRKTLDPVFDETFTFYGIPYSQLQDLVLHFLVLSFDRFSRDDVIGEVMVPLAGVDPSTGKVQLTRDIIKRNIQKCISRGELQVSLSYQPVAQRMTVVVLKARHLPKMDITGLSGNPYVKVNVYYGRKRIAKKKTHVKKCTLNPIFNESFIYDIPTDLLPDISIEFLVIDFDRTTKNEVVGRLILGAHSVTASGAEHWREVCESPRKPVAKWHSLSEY

These are yes or no findings as the source states them, for the method shown. In cells and extracts the contact can be indirect. Some entries that bind do so weakly or less than the wild type.

Some targets named below: Myc-JNK1 Y185F (UniProt P45983); Myc-JNK1 T183A (UniProt P45983); Myc-MKK7 (UniProt O14733); Myc-JNK1 WT (UniProt P45983); Myc-JNK2 (UniProt P45984).
Holding throughout (assay): co-IP; MKN1 and/or HEK293T cells co-transfected with the tagged proteins; cell lysates immunoprecipitated with anti-Myc or anti-GFP antibody, western blot (Fig. 3A-E); also in MKK7 knocked-down cells (JNK1-SYT11 binding inhibited)

On to “GFP-SYT11 (synaptotagmin 11) (from UniProt Q9BT88 1-431)”, for which the binding result is given as “no binding” with Myc-JNK1 Y185F; “no binding” in the assay with Myc-JNK1 T183A; “binds” in the assay with Myc-MKK7; “binds” with Myc-JNK1 WT; “binds” with Myc-JNK2.
On to “HA-MKK7 (from UniProt O14733 1-419) (enzyme)”, for which, in the assay with Myc-JNK1 WT, the binding result is recorded as “binds”.
